The list shows a part of the results. The list includes weakly bound sequences.
biological target: MaxL homodimer (UniProt P61244); assay: universal protein-binding microarray (PBM); details: PBS-based mixture, 10 nM His-tagged protein dimer, 2% milk, 200 ng/uL BSA, 50 ng/uL salmon testes DNA, 0.02% TX-100; detection with Alexa 488 anti-His …; high values mean tight binding; most listed sequences are background and not binding sites; double strand, one strand shown
Sequence of UniProt P61244 (P61244 whole entry): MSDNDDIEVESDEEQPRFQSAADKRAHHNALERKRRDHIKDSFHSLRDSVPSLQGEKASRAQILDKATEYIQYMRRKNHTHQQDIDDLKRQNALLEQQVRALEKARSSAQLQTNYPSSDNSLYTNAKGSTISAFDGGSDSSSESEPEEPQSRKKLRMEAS

Sequence | binding signal (normalized occupancy)
ACACTTCT | 0.0773
TCCCAGGA | 0.071
CCCAATTA | 0.0804
CCTGAGGC | 0.0688
AAAAGTTT | 0.0726
AGGCGTTC | 0.0755
CTCCCGAG | 0.0647
AGAAGCCC | 0.0653
TGCCTTAA | 0.0741
GTGGAGTA | 0.081
AATAATAG | 0.082
TACCAACA | 0.0837
ACGCGGTG | 0.0842
AGCGGATA | 0.0736
TAAGCGCA | 0.0759
CAAATAGC | 0.0753
GGAATGCA | 0.0767
GCACGGCA | 0.0753
ATAAATAT | 0.0846
GCATAGCA | 0.0801
TATGATAA | 0.0875
CGAACGTA | 0.0787

Sequence | binding signal (normalized occupancy)
AAGGCTCC | 0.067
AGGATTAC | 0.075
TCTAGTCA | 0.0729
TCGCGGCA | 0.0731
ATAAGAAC | 0.0773
AAGGAGCC | 0.0741
GCACGCAA | 0.083
CGCCATAA | 0.075
CGGAAGGA | 0.0653
AACCGAAG | 0.0674
CGACCCTC | 0.0724
AAATATTG | 0.0787
GTCAGTAA | 0.0717
ACACCGAG | 0.0777
AGCCCCCC | 0.0757
ACCCGTTG | 0.0754
CAATCCGG | 0.0674
CTCCTGGC | 0.0733
AATAGCGC | 0.0806
AAAGACAC | 0.0773
CCCTGCCG | 0.0694
CCAAATGC | 0.0781

Sequence | binding signal (normalized occupancy)
AAGCATAT | 0.0839
ATGCGAAC | 0.0798
GATCACGA | 0.0786
GCATGATA | 0.0994
AGGAAAAA | 0.0682
GAATGCGC | 0.075
TGTTATAA | 0.081
GGCGCACC | 0.0742
CAATACGA | 0.0824
GGTCCTGA | 0.0735
TCGTACGA | 0.066
GACTTTCA | 0.0708
CAATCCCG | 0.0745
CCATACGA | 0.0788
GTAATCGA | 0.0841
CGATGTCA | 0.082
GCAGTGCA | 0.0743
CGGCGTTC | 0.0691
ACTGTGTA | 0.0737
CTGTGCAC | 0.0869
ACCTCGTC | 0.0738
GGATGTGA | 0.0786

Sequence | binding signal (normalized occupancy)
CGTACAGA | 0.0703
ACCTGCTC | 0.0763
GCAGCGCC | 0.0702
TTCAAGAA | 0.0738
AAAAGGCC | 0.0652
AGTCCTTG | 0.0719
TACCCCCA | 0.0917
CTGTACTA | 0.0743
TAGTCTAA | 0.0749
ACCGGTCG | 0.0701
CGTACGAC | 0.0758
CCGGTCCG | 0.0645
ACCTATTC | 0.0738
CGGTCACG | 0.0822
ACCGGAGT | 0.0676
GCGGCTCA | 0.0719
ATGGAAAG | 0.0787
GCGTCTCC | 0.0713
CACTCAGC | 0.069
AGTATTCG | 0.0769

Reference: PMC4242493
